Source: PubChem BioAssay (Tox21)
“And” between values parts separate entries of the source, which are not always exact repeats. Equal values may be shown once. The inconclusive results got no clear call from the source; some entries with a clear call stand among them for comparison. For some of these results: Potencies of inconclusive entries are left out as doubtful fits. The source made the active and inactive calls. Unless noted, the call rests on the fitted dose curve; in most records, active means well fitted curve in the direction sought with a large enough effect in the repeat runs; inconclusive means weak or mixed curves; inactive means no such curve, though single readings can be large; an effect the other way counts as inactive or inconclusive.

Experiments:
[1] = qHTS assay to identify small molecule agonists of the TGF-beta/Smad signaling pathway - cell viability counter screen (AID 1346829); further: nearly all actives have a fitted effect of over 45% in size
Procedure, shortened: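 After overnight seating at 37 C and 5% CO2, reporter cells got compounds for 5 hr and FRET substrate for 2 hr; cell viability then came from CellTiter-Glo luminescence.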

[2] = qHTS assay to identify small molecule agonists of the TGF-beta/Smad signaling pathway (AID 1346859; active means well fitted activation curve with a large enough effect in the signal ratio in the repeat runs, not every such curve was filed as active; inconclusive means weak or mixed curves; the % refers to the signal ratio; on activation: on the % scale 0 is the no-effect control and ±100 the full control effect); conditions: SBE-bla HEK293T, TGF-beta/Smad beta-lactamase reporter, 5 h; activation: at 76.8 µM (top of the series) unless noted
Procedure, shortened: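 Each well held 4,000 SBE-bla HEK 293T cells incubated overnight before compound addition; 5 hr later the cleavable FRET substrate went on for 2 hr at room temperature, and fluorescence was read at two emissions.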

[3] = Human pregnane X receptor (PXR) small molecule agonists, qHTS cell viability counter screen (AID 1346977); further: nearly all actives have a fitted effect of over 50% in size
Procedure, shortened: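 Tox21 qHTS format; PXR-Luc HepG2, 2,000/well, charcoal-stripped FBS 5%. Cpd exposure 24hr. Read: CellTiter-Fluor fluorescence, multiplexed with luciferase.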

[4] = Caspase-3/7 induction in CHO-K1 cells by small molecules, qHTS cell viability counter screen (AID 1346979); further: nearly all actives have a fitted effect of over 35% in size
Procedure, shortened: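 CellTiter-Fluor viability check, qHTS format: wild-type CHO-K1, 16hr compound treatment, 1hr reagent incubation, fluorescence read.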

[5] = molecular target: Acetylcholinesterase (Homo sapiens) (UniProt P22303); assay: Acetylcholinesterase (AChE) small molecule antagonists: enzyme-based qHTS assay (AID 1347397; calls by dose curve; further: nearly all actives have a fitted effect of over 55% in size); conditions: Potency: AChE enzyme activity inhibition
Procedure, shortened: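 First, recombinant human AChE (50 mU/mL as dispensed) received test compound or DMSO. Second, plates stood 30 min at room temperature. Third, DTNB and acetylthiocholine were added, followed by 10 min at room temperature and colorimetric detection.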

[6] = molecular target: Cytochrome P450 2D6 (Homo sapiens) (UniProt P10635); assay: Cytochrome P450 Family 2 Subfamily D Member 6 (CYP2D6) small molecule antagonists: luciferase reporter qHTS assay (AID 1671196); further: nearly all actives have a fitted effect of over 50% in size
Procedure, shortened: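 Enzyme and proluciferin substrate were first combined with test chemical for 10 min at room temperature. Adding NADPH regeneration solution started a 1 h reaction, stopped with luciferin detection reagent and read by luminescence 20 min later.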

[7] = molecular target: Thyrotropin-releasing hormone receptor (Homo sapiens) (UniProt P34981); assay: qHTS assay to identify small molecule antagonists of the thyrotropin-releasing hormone receptor (TRHR) signaling pathway (AID 1346877; active means well fitted inhibition curve with a large enough effect in the repeat runs, not every such curve was filed as active; inconclusive means weak or mixed curves)
Procedure, shortened: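 Antagonism is measured as suppression of the calcium response to 1 nM TRH in TRHR-HEK293 cells that have been dye-loaded for 2 h at 37 °C after overnight plating. Each compound is tested at 15 concentrations in triplicate.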

[8] = qHTS assay to identify small molecule antagonists of the TGF-beta/Smad signaling pathway (AID 1346924; active means well fitted inhibition curve with a large enough effect in the signal ratio in the repeat runs, not every such curve was filed as active; inconclusive means weak or mixed curves; the % refers to the signal ratio); conditions: SBE-bla HEK293T, TGF-beta/Smad reporter, beta-lactamase ratio; activity, negative = inhibition: at 76.8 µM (top of the series) unless noted
Procedure, shortened: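 Read-out was FRET-substrate fluorescence (405 nm excitation; 460 and 530 nm emission) after 2 h at room temperature. Before that, cells carrying a Smad-binding-element beta-lactamase reporter in HEK 293T had been stimulated 5 h at 37 C with TGF-beta1 (0.25 ng/mL addition solution) in the presence of test compound.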

[9] = molecular target: Nuclear receptor subfamily 1 group I member 2 (Homo sapiens) (UniProt O75469); assay: Human pregnane X receptor (PXR) small molecule agonists, qHTS assay (AID 1346982); further: nearly all actives have a fitted effect of over 35% in size
Procedure, shortened: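 Cells: HepG2 stably carrying PXR-Luc. Medium held 5% charcoal-stripped FBS. Compounds in DMSO added after 5 hr plating, incubated 24 hr, then luminescence quantified with ONE-Glo.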

[10] = Caspase-3/7 induction in HepG2 cells by small molecules, qHTS cell viability counter screen (AID 1346981); further: nearly all actives have a fitted effect of over 30% in size
Procedure, shortened: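 Cell viability is measured as a cytotoxicity counter screen alongside the Caspase-Glo 3/7 readout in identical wells. Wild-type HepG2 cells are treated with test compounds for 16 hr at 37 C before CellTiter-Fluor addition and a 1-hr incubation.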
Potency means the concentration at half of the fitted maximal effect; tags describe the fitted curve by direction and shape or compound fluorescence and quenching.

Chain of UniProt P10635 (P10635 whole entry, looked up): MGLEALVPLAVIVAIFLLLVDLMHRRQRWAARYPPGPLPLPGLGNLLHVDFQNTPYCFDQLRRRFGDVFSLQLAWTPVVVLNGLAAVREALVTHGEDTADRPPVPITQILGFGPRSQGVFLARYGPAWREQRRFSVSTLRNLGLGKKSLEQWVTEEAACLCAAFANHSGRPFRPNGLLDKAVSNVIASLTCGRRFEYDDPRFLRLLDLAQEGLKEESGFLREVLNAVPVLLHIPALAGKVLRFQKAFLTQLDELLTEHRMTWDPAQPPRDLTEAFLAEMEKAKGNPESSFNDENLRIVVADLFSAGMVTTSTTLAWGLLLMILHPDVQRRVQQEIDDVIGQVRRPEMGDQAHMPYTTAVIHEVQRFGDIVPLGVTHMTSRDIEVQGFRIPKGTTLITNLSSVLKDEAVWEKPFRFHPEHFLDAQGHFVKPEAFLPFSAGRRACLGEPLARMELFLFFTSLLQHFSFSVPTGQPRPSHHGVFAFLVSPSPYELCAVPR
Chain of UniProt O75469 (O75469 whole entry, looked up): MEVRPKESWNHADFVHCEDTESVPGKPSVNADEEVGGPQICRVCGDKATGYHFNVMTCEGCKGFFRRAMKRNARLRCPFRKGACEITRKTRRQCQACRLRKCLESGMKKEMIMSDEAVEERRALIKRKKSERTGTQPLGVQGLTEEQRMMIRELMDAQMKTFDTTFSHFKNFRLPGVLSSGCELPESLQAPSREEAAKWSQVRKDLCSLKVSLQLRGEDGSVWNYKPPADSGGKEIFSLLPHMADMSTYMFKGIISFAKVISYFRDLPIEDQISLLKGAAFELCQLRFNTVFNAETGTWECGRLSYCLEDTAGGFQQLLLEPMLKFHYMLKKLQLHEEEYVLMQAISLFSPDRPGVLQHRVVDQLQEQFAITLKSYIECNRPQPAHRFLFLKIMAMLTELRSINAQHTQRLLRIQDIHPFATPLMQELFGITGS
Chain of UniProt P22303 (P22303 whole entry, looked up): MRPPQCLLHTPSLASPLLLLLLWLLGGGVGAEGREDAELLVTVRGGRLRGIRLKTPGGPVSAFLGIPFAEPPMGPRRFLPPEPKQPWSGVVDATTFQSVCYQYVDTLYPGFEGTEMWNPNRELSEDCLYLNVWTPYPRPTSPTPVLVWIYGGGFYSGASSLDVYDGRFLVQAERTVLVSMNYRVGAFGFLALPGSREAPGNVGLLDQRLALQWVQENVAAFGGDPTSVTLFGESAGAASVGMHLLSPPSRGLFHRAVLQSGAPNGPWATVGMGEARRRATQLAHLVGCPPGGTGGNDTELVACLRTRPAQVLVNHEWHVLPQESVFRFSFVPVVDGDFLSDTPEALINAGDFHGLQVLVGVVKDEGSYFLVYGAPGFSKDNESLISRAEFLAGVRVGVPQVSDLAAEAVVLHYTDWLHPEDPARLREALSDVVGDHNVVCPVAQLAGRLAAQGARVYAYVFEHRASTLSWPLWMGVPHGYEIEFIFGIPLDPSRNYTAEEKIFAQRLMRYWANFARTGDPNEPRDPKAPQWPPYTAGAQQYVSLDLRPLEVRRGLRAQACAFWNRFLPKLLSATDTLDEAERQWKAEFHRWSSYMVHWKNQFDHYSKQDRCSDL
Chain of UniProt P34981 (P34981 whole entry, looked up): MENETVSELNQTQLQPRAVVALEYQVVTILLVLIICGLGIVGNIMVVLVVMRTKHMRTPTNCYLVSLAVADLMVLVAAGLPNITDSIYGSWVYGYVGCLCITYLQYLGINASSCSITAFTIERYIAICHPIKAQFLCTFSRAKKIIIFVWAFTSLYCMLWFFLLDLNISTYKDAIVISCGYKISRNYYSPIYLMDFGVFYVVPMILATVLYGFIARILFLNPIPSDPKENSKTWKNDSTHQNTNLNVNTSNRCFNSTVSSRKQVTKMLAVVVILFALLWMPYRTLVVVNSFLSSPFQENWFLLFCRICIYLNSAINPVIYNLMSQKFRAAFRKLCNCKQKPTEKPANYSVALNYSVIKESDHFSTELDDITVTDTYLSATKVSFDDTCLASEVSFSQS

Q: With `CCCCN(CCCC)SN(C)C(=O)Oc1cccc2c1OC(C)(C)C2` as the molecule, how does the Potency [1] read?
A: inconclusive [cytotoxic, partial curve]

Q: What about the Potency [2] of the same molecule?
A: inactive

Q: And the Potency [3]?
A: inconclusive [cytotoxic, partial curve, poor fit]

Q: And the Potency [4]?
A: inconclusive [cytotoxic]

Q: What about the Potency [5] of the same molecule?
A: active: 57.3 nM and active: 894 nM

Q: What about the Potency [6] of the same molecule?
A: active: 28.7 µM and active: 35.6 µM

Q: What does the source list for `CCCCNC(=O)OCC#CI`?
A: Potency [1]: inconclusive [cytotoxic, single point]; Potency [2]: inconclusive [falling, partial curve, poor fit]; Potency [7]: inconclusive [inhibitor, single point]; activity, negative = inhibition [8]: inconclusive: -15%; Potency [4]: active: 30.5 µM and active: 27.3 µM; Potency [9]: inconclusive [activator, single point]

Q: What does the source list for `CC(=O)[O-].CC(=O)[O-].[Hg+2]`?
A: Potency [1]: active: 24.5 µM; Potency [8]: inconclusive [rising, full curve]; Potency [3]: active: 6.11 µM; Potency [4]: active: 2.43 µM; Potency [10]: active: 19.3 µM

Q: With `CO/C=C(/C(=O)OC)c1ccccc1Oc1cc(Oc2ccccc2C#N)ncn1` as the molecule, how does the Potency [1] read?
A: inconclusive [cytotoxic, partial curve]

Q: What about the Potency [8] of the same molecule?
A: inconclusive

Q: What about the Potency [4] of the same molecule?
A: active: 1.05 µM

Q: What about the Potency [10] of the same molecule?
A: active: 24.5 µM

Q: What about the Potency [9] of the same molecule?
A: active: 0.686 µM

Q: Which Potency [1] does the source give for `COP(=S)(OC)Oc1ccc([N+](=O)[O-])c(C)c1` here?
A: inconclusive [cytotoxic, partial curve, poor fit]

Q: What about the Potency [3] of the same molecule?
A: inactive

Q: What about the Potency [4] of the same molecule?
A: inconclusive [cytotoxic]
